Laboratory results taken from PubChem BioAssay (NCATS).
The inconclusive results got no clear call from the source; some entries with a clear call stand among them for comparison. Potencies beside an inconclusive call are fits to weak or partial responses and may not hold up. Calls of active or inactive are those of the source. Calls come from the whole dose curve; as a rule, active = well fitted curve in the direction sought with a large enough effect; inconclusive = small, poorly fitted or top-dose-only effect, or another doubt; inactive = no such curve, though single readings can be large; an effect the other way counts as inactive or inconclusive.

What was measured:
[1] = Primary qHTS for inhibitors of nuclear receptor binding SET domain protein 2 (NSD2) in an isogenic RCH-ACV NSD2 p.E1099K mutant (9B) (AID 1645876); note: nearly all actives have a fitted effect of over 70% in size
CRL-7250 = normal cell line; test: Cytotoxic Profiling of Annotated Libraries Using Quantitative High-Throughput Screening (AID 1296008); settings: Five cell lines viability, CellTiter-Glo ATP luminescence, 48-72 h; max response: hits give low values; note: nearly all actives have a fitted effect of over 60% in size; for max response: % is set by controls: 0 for no effect and ±100 for the full control effect
Outline: (§1)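 Compounds were pin-transferred onto cells and incubated 48 or 72 hr at 37 degree Celsius, 95% humidity. CellTiter-Glo was added, plates sat 10 min at room temperature, then ATP-coupled luminescence was imaged as the viability read-out.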

HEK293 = test: as above; settings: Five cell lines viability, CellTiter-Glo ATP luminescence, 48-72 h; max response: hits give low values
Outline: as §1

NIH3T3 = test: as above; settings: Five cell lines viability, CellTiter-Glo ATP luminescence, 48-72 h; max response: hits give low values
Outline: as §1

CASKI = test: Primary qHTS to identify gynecologic anti-cancer compounds using libraries of approved drugs and bioactive compounds (AID 1345084); settings: Gynecologic cancer cell panel viability, ATPlite luminescence, 48 h; activity change, negative = cytotoxicity: at 57.5 µM (top of the series); note: nearly all actives have a fitted effect of over 55% in size; for activity change, negative = cytotoxicity: % is set by controls: 0 for no effect and ±100 for the full control effect
Outline: (§2)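 Luminescence from the ATPlite ATP-monitoring reagent indicates viable cell number; lower signal means cytotoxicity. Cells received compound 16 h after seeding and were exposed for 48 h across five concentrations.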

Es-2 = test: as above; settings: Gynecologic cancer cell panel viability, ATPlite luminescence, 48 h; series mostly up to 57.5 µM
Outline: as §2

Hek293T = test: as above; settings: Gynecologic cancer cell panel viability, ATPlite luminescence, 48 h, control line for the selectivity index; series mostly up to 57.5 µM
Outline: as §2

OV90 = test: as above; settings: Gynecologic cancer cell panel viability, ATPlite luminescence, 48 h; series mostly up to 57.5 µM
Outline: as §2

PA-1 = test: as above; settings: Gynecologic cancer cell panel viability, ATPlite luminescence, 48 h; series mostly up to 57.5 µM
Outline: as §2

SKOV3 = test: as above; settings: Gynecologic cancer cell panel viability, ATPlite luminescence, 48 h; series mostly up to 57.5 µM
Outline: as §2

Tov-21-G = test: as above; settings: Gynecologic cancer cell panel viability, ATPlite luminescence, 48 h; activity change, negative = cytotoxicity: at 57.5 µM (top of the series)
Outline: as §2

Tov112D = test: as above; settings: Gynecologic cancer cell panel viability, ATPlite luminescence, 48 h; activity change, negative = cytotoxicity: at 57.5 µM (top of the series)
Outline: as §2

[2] = P-glycoprotein substrates identified in KB-8-5-11 adenocarcinoma cell line, qHTS therapeutic library screen (AID 1346987); note: nearly all actives have a fitted effect of over 65% in size; for activity change, negative = cytotoxicity: % is set by controls: 0 for no effect and ±100 for the full control effect
Outline: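 In this qHTS, P-gp-rich KB-8-5-11 cells received library compounds across a concentration range. Viability was quantified by luminescence after 72 h at 37 degree C.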

[3] = system: Zika virus NS2B-NS3 protease (unlinked complex); test: Primary screen GU Rhodamine qHTS for Zika virus inhibitors: Unlinked NS2B-NS3 protease assay (AID 1347159); note: nearly all actives have a fitted effect of over 60% in size
Outline: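 In dose–response format, inhibition of unlinked protease (25 nM) was measured with 1.5 microM bis-peptide Rhodamine110 substrate. Aprotinin served as the intraplate control.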

[4] = Primary qHTS for inhibitors of nuclear receptor binding SET domain protein 2 (NSD2) in an RCH-ACV wild type WT cells (2C) (AID 1645877); settings: activity change, negative = cell killing: at 44.9 µM (top of the series); note: nearly all actives have a fitted effect of over 70% in size
[5] = Primary fluorescence-based thiol-reactive (MSTI) qHTS assay for identification of artifact compounds. (AID 1845221);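 note: thiol-reactive compounds lower the probe fluorescence signal; nearly all actives have a fitted effect of over 65% in size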
Outline: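 Compounds were incubated 1 h at room temperature in the dark with the MSTI probe (4 uM) in PBS pH 7.4, 2% DMSO. Signals were normalized between Acetyl-MSTI and MSTI.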

JEG-3 = test: Primary qHTS to identify gynecologic anti-cancer compounds using libraries of approved drugs and bioactive compounds (AID 1345084); settings: Gynecologic cancer cell panel viability, ATPlite luminescence, 48 h; series mostly up to 57.5 µM; note: nearly all actives have a fitted effect of over 55% in size; for activity change, negative = cytotoxicity: % is set by controls: 0 for no effect and ±100 for the full control effect
Outline: as §2

C33A = test: as above; settings: Gynecologic cancer cell panel viability, ATPlite luminescence, 48 h; series mostly up to 57.5 µM
Outline: as §2

CAOV3 = test: as above; settings: Gynecologic cancer cell panel viability, ATPlite luminescence, 48 h; series mostly up to 57.5 µM
Outline: as §2
Potency is the fitted concentration of half-maximal effect; tags give direction and shape of the fitted curve.

**Q.** Which results are given for `CC(=O)O[C@H]1CC(C)(C)CC2[C@]13CO[C@@]21CCC2[C@@]4(C)CC[C@H](O[C@@H]5OC[C@H](O[C@@H]6O[C@H](CO)[C@@H](O)[C@H](O)[C@H]6O[C@@H]6OC[C@@H](O)[C@H](O)[C@H]6O)[C@H](O)[C@H]5O[C@@H]5O[C@H](CO)[C@@H](O)[C@H](O)[C@H]5O)[C@@](C)(CO)C4CC[C@@]2(C)[C@]1(C)C[C@H]3O` (stereo partly drawn)?
**A.** Potency [1]: active: 2.45 µM; Potency (CRL-7250): inconclusive: 5.51 µM [inhibitor, single point]; Potency (HEK293): inconclusive: 6.93 µM [inhibitor, single point]; Potency (NIH3T3): inconclusive: 6.18 µM [inhibitor, single point]; activity change, negative = cytotoxicity (CASKI): inactive: -20.7% [at 11.6 µM]; Potency (Es-2): inconclusive: 4.47 µM [cytotoxic, single point]; Potency (Hek293T): inconclusive: 5.01 µM [cytotoxic, single point]; Potency (OV90): inconclusive: 7.94 µM [cytotoxic, single point]; Potency (PA-1): inconclusive: 7.08 µM [cytotoxic, single point]; activity change, negative = cytotoxicity (SKOV3): inactive: -11.7% [at 11.6 µM]; Potency (Tov-21-G): inconclusive: 11.2 µM [cytotoxic, single point]; Potency (Tov112D): inconclusive: 11.2 µM [cytotoxic, single point]

**Q.** What does the source list for `C/C(=C\Cc1c(O)c(Cl)c(C)c(C=O)c1O)CC/C=C(\C)[C@H]1CC(=O)C(C)(C)O1`?
**A.** Potency [2]: inconclusive: 7.96 µM [inhibitor, partial curve]; Potency [3]: inconclusive: 7.94 µM [inhibitor, full curve]; Potency [4]: inconclusive: 2.52 µM [inhibitor, full curve]; Potency [5]: inconclusive: 0.582 µM [inhibitor, full curve]; max response (CRL-7250): inactive: -27.3%; Potency (HEK293): inconclusive: 1.59 µM [inhibitor, full curve, poor fit]; max response (NIH3T3): inactive: -17.5%; Potency (Es-2): inconclusive: 17.8 µM [cytotoxic, single point]; Potency (JEG-3): inconclusive: 17.8 µM [cytotoxic, single point]; Potency (PA-1): inconclusive: 5.01 µM [cytotoxic, partial curve, poor fit]; Potency (Tov-21-G): inconclusive: 17.8 µM [cytotoxic, single point]

**Q.** For `C=C(C)[C@@H]1CC=C(COC(=O)NC(=O)c2ncn3c(=O)n(C)nnc23)CC1`, which Potency [4] is on record?
**A.** Its Potency is inconclusive: 2.05 µM [inhibitor, full curve].

**Q.** And the Potency (CRL-7250)?
**A.** The Potency was inconclusive: 29.1 µM [inhibitor, single point].

**Q.** And the Potency (HEK293)?
**A.** Its Potency is inconclusive: 18.4 µM [inhibitor, single point].

**Q.** And the Potency (NIH3T3)?
**A.** Its Potency is active: 18.4 µM.

**Q.** And the Potency (C33A)?
**A.** The Potency was inconclusive: 39.8 µM [cytotoxic, single point].

**Q.** And the Potency (CAOV3)?
**A.** The Potency was inconclusive: 39.8 µM [cytotoxic, single point].

**Q.** What about the Potency (CASKI) of the same molecule?
**A.** The Potency was inconclusive: 31.6 µM [cytotoxic, partial curve, poor fit].

**Q.** What about the Potency (Es-2) of the same molecule?
**A.** The Potency was active: 20 µM.

**Q.** And the Potency (Hek293T)?
**A.** The Potency was active: 25.1 µM.

**Q.** What about the Potency (JEG-3) of the same molecule?
**A.** Its Potency is inconclusive: 20 µM [cytotoxic, partial curve, poor fit].

**Q.** And the Potency (OV90)?
**A.** Its Potency is inconclusive: 20 µM [cytotoxic, partial curve, poor fit].

**Q.** What about the Potency (PA-1) of the same molecule?
**A.** The Potency was inconclusive: 31.6 µM [cytotoxic, partial curve, poor fit].

**Q.** What about the Potency (SKOV3) of the same molecule?
**A.** The Potency was inconclusive: 35.5 µM [cytotoxic, single point].

**Q.** And the Potency (Tov-21-G)?
**A.** Its Potency is inconclusive: 39.8 µM [cytotoxic, single point].

**Q.** And the Potency (Tov112D)?
**A.** Its Potency is inconclusive: 39.8 µM [cytotoxic, single point].

**Q.** With `C=C1C(=O)O[C@@H]2C=C(COC(C)=O)CC/C=C(\CO)CC[C@@H]12` as the molecule, how does the Potency [1] read?
**A.** Its Potency is inconclusive: 20.1 µM [inhibitor, single point].

**Q.** And the Potency [4]?
**A.** The Potency was inconclusive: 12.7 µM [inhibitor, single point].

**Q.** And the Potency (CRL-7250)?
**A.** Its Potency is inconclusive: 4.04 µM [inhibitor, partial curve, poor fit].

**Q.** And the Potency (HEK293)?
**A.** The Potency was inconclusive: 20.2 µM [inhibitor, single point].

**Q.** What about the max response (NIH3T3) of the same molecule?
**A.** The max response was inactive: -6.09%.

**Q.** And the Potency (CAOV3)?
**A.** The Potency was inconclusive: 12.6 µM [cytotoxic, single point].

**Q.** With `C=CC1C(OC2OC(CO)C(O)C(O)C2O)OC=C(C(=O)OC)C1CC(=O)OCC1C(C)C(O)CC1C(CO)COC(=O)CC1C(C(=O)O)=COC(OC2OC(CO)C(O)C(O)C2O)/C1=C\C` (stereo not drawn) as the molecule, how does the Potency [1] read?
**A.** Its Potency is inconclusive: 7.74 µM [inhibitor, single point].

**Q.** What about the Potency [4] of the same molecule?
**A.** The Potency was inconclusive: 3.88 µM [inhibitor, partial curve].

**Q.** What about the Potency (CRL-7250) of the same molecule?
**A.** The Potency was inconclusive: 6.93 µM [inhibitor, single point].

**Q.** And the max response (HEK293)?
**A.** Its max response is inactive: 0.0453%.

**Q.** What about the max response (NIH3T3) of the same molecule?
**A.** The max response was inactive: -19.3%.

**Q.** And the activity change, negative = cytotoxicity (PA-1)?
**A.** The activity change, negative = cytotoxicity was inactive: -12.5% [at 11.6 µM].

**Q.** What about the Potency (SKOV3) of the same molecule?
**A.** The Potency was inconclusive: 3.98 µM [rising, partial curve].

**Q.** What does the source list for `O=C(NCCN1CCOCC1)c1cc2c(Oc3ccc(NC(=O)C4(C(=O)Nc5ccc(F)cc5)CC4)cc3)ccnc2[nH]1`?
**A.** Potency [2]: inactive; Potency [4]: active: 12.9 µM; Potency (CRL-7250): inconclusive: 11.6 µM [inhibitor, partial curve, poor fit]; Potency (HEK293): inconclusive: 20.6 µM [inhibitor, single point]; Potency (NIH3T3): active: 6.51 µM; Potency (Es-2): inconclusive: 8.91 µM [cytotoxic, partial curve]; Potency (OV90): inconclusive: 28.2 µM [cytotoxic, single point]
